US20240018243A1 (NOVOMAB BIOPHARMACEUTICALS, published 2024)

T1: Human CTLA4-His recombinant protein (human, UniProt P16410 36-162)
T1 construct: also called CTLA4-HIS (Sino Biological); CTLA4 recombinant protein; not shown: His tag
T1 sequence (looked up): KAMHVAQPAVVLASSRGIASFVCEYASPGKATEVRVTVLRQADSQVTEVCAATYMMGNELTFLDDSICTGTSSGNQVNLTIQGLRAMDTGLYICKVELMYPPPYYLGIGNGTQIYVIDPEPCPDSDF

T2: human CTLA4 on transfected 293 cells (human, UniProt P16410 36-223)
T2 construct: whole, on cells; also called human CTLA4 expressing cells; CTLA4 overexpressing cells
T2 sequence (looked up): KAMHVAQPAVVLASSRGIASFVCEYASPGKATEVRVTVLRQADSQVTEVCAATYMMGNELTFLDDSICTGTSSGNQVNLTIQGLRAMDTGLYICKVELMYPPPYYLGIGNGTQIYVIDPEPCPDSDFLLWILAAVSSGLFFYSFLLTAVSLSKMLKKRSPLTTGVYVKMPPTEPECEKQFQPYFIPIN


Key:
[1] = target: T1, Human CTLA4-His recombinant protein; test: ELISA, human CTLA4-His coated, goat anti-human IgG-HRP, OD450
[2] = target: T1, Human CTLA4-His recombinant protein; test: as above; remark: listed apart in the source
[3] = target: T1, Human CTLA4-His recombinant protein; test: ELISA, human CTLA4-His coated, anti-human IgG-HRP
[4] = target: T2, human CTLA4 on transfected 293 cells; test: cell ELISA on 293 cells transfected with human CTLA4
[5] = target: T3, monkey CTLA4 on expressing cells (monkey); test: cell ELISA on monkey CTLA4 expressing cells
T3 construct: whole, on cells; also called monkey CTLA4 expressing cells

[6] = target: T1, Human CTLA4-His recombinant protein; test: OCTET (BLI), antibody on protein A biosensor, CTLA4-HIS in solution
Procedure: The affinity constant KD of the antibody to CTLA4 was determined using OCTET. Firstly, the protein A biosensor was used to immobilize the antibody to be detected, and the biosensors containing different antibodies were placed in the CTLA4-HIS diluent with the same concentration (Sino Biological) for binding for 4 min. The biosensor was then placed in the PBS for 400 s. The affinity constant KD of the antibody was analyzed by OCTET analysis software, KD is kd/ka.

EC50 [2] | EC50 [4] | Binder | also measured
0.0716 µg/mL |  | HCA13 (Fc fusion, The sheet prints only 'HCA13'; also called HCA13-F4) VHH-Fc (IgG4 S228P) fusion chain: EVQLLESGGGLVQPGGSLRLSCAASGSIFSINHMAWYRQAPGKGLELVAGVNSRGTTNYVDSVKGRFTISRDNSKNTLYLQMNSLRAEDTAVYYCRALGGAVAAWGQGTLVTVSSGGGGSGGGGSGGGGS[human IgG4 Fc with S228P (EU numbers) skipped] | EC50 [1]: 0.0627 µg/mL
0.00435 µg/mL | 0.0426 µg/mL | CA1-F4 (Fc fusion, Alpaca VHH CA1 fused to human IgG4 Fc (S228P); Cloned with a signal peptide) QVQLQESGGGLVQAGGSLRLSCAASGSIFSINHMAWYRQAPGKQRELVAGVNSRGTTNYVDSVKGRFTISRDNAKNMVYLLMNSLKPEDTAVYYCRALGGAVAAWGQGTQVTVSSGGGGSGGGGSGGGGS[human IgG4 Fc with S228P (EU numbers) skipped] | EC50 [3]: 0.00677 µg/mL
1.14 µg/mL |  | HCA12 (Fc fusion, The sheet prints only 'HCA12'; also called HCA12-F4) VHH-Fc (IgG4 S228P) fusion chain: EVQLLESGGGLVQPGGSLRLSCAASGSIFSINHMAWYRQAPGKGLELVAGVNSRGTTNYVDSVKGRFTISRDNSKNTLYLQMNSLRAEDTAVYYCAALGGAVAAWGQGTLVTVSSGGGGSGGGGSGGGGS[human IgG4 Fc with S228P (EU numbers) skipped] | 
0.657 µg/mL |  | HCA11 (Fc fusion, The sheet prints only 'HCA11'; also called HCA11-F4) VHH-Fc (IgG4 S228P) fusion chain: EVQLLESGGGLVQPGGSLRLSCAASGFTFSINHMAWYRQAPGKGLELVAGVNSRGTTNYVDSVKGRFTISRDNSKNTLYLQMNSLRAEDTAVYYCAALGGAVAAWGQGTLVTVSSGGGGSGGGGSGGGGS[human IgG4 Fc with S228P (EU numbers) skipped] | 
 |  | HCA15 (Fc fusion, The sheet prints only 'HCA15'; also called HCA15-F4) VHH-Fc (IgG4 S228P) fusion chain: EVQLLESGGGLVQPGGSLRLSCAASGSIFSINHMAWYRQAPGKGLELVAGVNSRGTTNYVDSVKGRFTISRDNSKNMVYLQMNSLRAEDTAVYYCRALGGAVAAWGQGTLVTVSSGGGGSGGGGSGGGGS[human IgG4 Fc with S228P (EU numbers) skipped] | EC50 [1]: 0.165 µg/mL
 | 0.0335 µg/mL | HCA14-F4 (Fc fusion, also called bivalent antibody HCA14-F4) EVQLLESGGGLVQPGGSLRLSCAASGSIFSINHMAWYRQAPGKQRELVAGVNSRGTTNYVDSVKGRFTISRDNSKNTLYLQMNSLRAEDTAVYYCRALGGAVAAWGQGTLVTVSSGGGGSGGGGSGGGGS[human IgG4 Fc with S228P (EU numbers) skipped] | EC50 [5]: 0.00857 µg/mL; Kd [6]: < 1 pM; koff [6]: < 1e-07 s⁻¹; kon [6]: 37300 M⁻¹ s⁻¹
 | 0.0367 µg/mL | HCA14-F1 (Fc fusion, HCA14 fused to human IgG1 Fc; also called HCA14-1) EVQLLESGGGLVQPGGSLRLSCAASGSIFSINHMAWYRQAPGKQRELVAGVNSRGTTNYVDSVKGRFTISRDNSKNTLYLQMNSLRAEDTAVYYCRALGGAVAAWGQGTLVTVSSGGGGSGGGGSGGGGS[human IgG1 Fc skipped] | 
